From PubChem BioAssay (NCATS)
Where “and” joins values, the source holds several entries; their conditions need not be identical. Identical values can stand only once. Some of the results follow. Further columns of the screen follow, without active or inactive calls. Most of these compounds were active or inconclusive in the main read-out, so they are no random draw. For some assays here: Potencies come from curve fits of mixed quality, noted in brackets.

Experiments:
[1] = qHTS Assay for Lipid Storage Modulators (AID 1519); conditions: Drosophila S3 cells, BODIPY lipid droplet/cell ratio, laser cytometry, cells loaded with oleic acid
Outline: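 Cells seeded at 5,000 per well were treated with compounds over a concentration series and loaded with oleic acid (400 uM, as added). Lipid droplet fluorescence (488 nm excitation, 500-530 nm channel) was read by laser-scanning cytometry and normalized to 20 uM Triacsin C.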

[2] = qHTS Validation Assay to Find Inhibitors of Chronic Active B-Cell Receptor Signaling (AID 485345); conditions: ABC-DLBCL cells, chronic BCR signaling reporter
Outline: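 Read-out: ratio of filter-corrected green (IkappaBalpha fusion) to red (native) luciferase signal in doxycycline-induced TMD8 cells after 4 h at 37C. Titration spanned 46 uM–3 nM; Data were normalised to basal cells and 10 uM MG-132 wells.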

[3] = qHTS assay for small molecule antagonists of peroxisome proliferator-activated receptor delta signaling (AID 588535); conditions: HEK293T PPARd-UAS-bla, beta-lactamase FRET ratio, 18 h; 460 nm channel;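 note: cells co-treated with a PPAR-delta agonist as stimulator during compound exposure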
Outline: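 HEK293T PPAR-delta-UAS-bla cells, 4000/well, 2% charcoal/dextran FBS; 5 h 37 C; cpd titration; 18 h 37 C; CCF4 2 h RT; FI 460/530 nm; Hill fit → IC50, efficacy.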

[4] = qHTS assay for small molecule antagonists of peroxisome proliferator-activated receptor gamma signaling (AID 588537); conditions: HEK293 PPARg-UAS-bla, beta-lactamase ratio, antagonist mode; measured here: W460 blue channel
Outline: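 Antagonist mode, beta-lactamase reporter in HEK293; charcoal/dextran FBS 1%; 3000 cells/well, 37 C 6-6.5 h; cpd titration + rosiglitazone 50 nM final, 16 h 37 C; CCF4, 2 h RT; 460/530 nm; Hill fit → IC50, efficacy.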

[5] = qHTS assay for small molecule agonists of retinoid X receptor alpha signaling (AID 588544); conditions: HEK293T RXRa-UAS-bla, beta-lactamase reporter, 18 h; 530 nm emission
[6] = qHTS assay for small molecule antagonists of retinoid X receptor alpha signaling (AID 588546); conditions: HEK293T RXRa-UAS-bla, beta-lactamase ratio, antagonist mode; measured here: W530 green channel, cytotoxicity proxy;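 note: cells stimulated with 9-cis-retinoic acid as agonist; % is set by controls: 0 for no effect and ±100 for the full control effect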
Outline: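 Beta-lactamase reporter inhibition, read as CCF4 fluorescence ratio (ex 405, em 460/530 nm) after 2 h at RT. HEK293T UAS-bla cells, 2500/well, were stimulated with 9-cis-RA at 500 or 100 nM final alongside test compound for 18 h at 37 C.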

[7] = qHTS assay for small molecule antagonists of vitamin D receptor signaling (AID 588541); conditions: HEK293T VDR-UAS-bla, beta-lactamase ratio, antagonist mode; measured here: W460 blue channel (cell viability);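 note: cells exposed to compound for 16 h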
[8] = qHTS Assay for Inhibitors of PDE-IV (AID 607); conditions: HEK293 ACTOne CNG channel cells, membrane potential fluorescence; measured here: parental cell counter-screen;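 note: parental cells stimulated with forskolin 10 µM plus RO 20-1724 100 µM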
Outline: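 HEK293 ACTOne cells with CNG channel (1000/well), endogenous PDE4; membrane potential dye, compounds up to 22.9 uM final. Fluorescence Ex 535/Em 590; RO 20-1724 (100 uM final) as reference.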

[9] = Nrf2 qHTS screen for inhibitors: Validation (AID 493153); conditions: A549 ARE-Fluc reporter, 18-24 h; AC50: CellTiter-Fluor fluorescence read, measured here: cytotoxicity CellTiter-Fluor AC50; viability change: measured here: cytotoxicity max response
Outline: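 A549 cells carrying ARE-firefly luciferase reporter, 5000 cells/well in 5% FBS OPTI-MEM, treated with compound over a concentration series for 18-24 h at 37 C. Luciferase luminescence gave Nrf2 activity; CellTiter-Fluor fluorescence gave viability.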

[10] = measured here: cell count channel max response
[11] = measured here: cell number channel AC50
[12] = measured here: lipid (BODIPY) channel AC50
[13] = measured here: lipid channel max response
[14] = measured here: CBR control luciferase (viability counter)
Tags give direction and shape of the fitted curve.

Question: What does the source list for `Clc1ccc2c(c1)N=C(N1CCNCC1)c1ccccc1N2`?
Answer: max response [1, 10]: 59.1%; AC50 [1, 11]: 25.1 µM [rising, partial curve]; AC50 [1, 12]: 28.2 µM [rising, partial curve]; max response [1, 13]: 80.6%; AC50 ([2]; measured here: CBG/CBR ratio read-out): 18.4 µM [falling, single point]

Question: What does the source list for `Nc1ncnc2c1ncn2[C@@H]1O[C@H](CO)[C@@H](O)[C@H]1O`?
Answer: max response [1, 10]: 57.4%; AC50 [1, 11]: 31.6 µM [rising, partial curve, poor fit]; AC50 [1, 12]: 28.2 µM [rising, partial curve, poor fit]; max response [1, 13]: 72.3%; AC50 [2, 14]: 7.31 µM [rising, partial curve]

Question: For `CC1=NN(c2ccccc2)C(=O)C1`, which max response [1, 10] is on record?
Answer: Its max response is 73.9%.

Question: What about the AC50 [1, 11] of the same molecule?
Answer: The AC50 was 28.2 µM [rising, partial curve].

Question: And the AC50 [1, 12]?
Answer: Its AC50 is 31.6 µM [rising, partial curve, poor fit].

Question: And the max response [1, 13]?
Answer: Its max response is 95.1%.

Question: What about the max response [3] of the same molecule?
Answer: Its max response is 46.7%.

Question: What about the AC50 [4] of the same molecule?
Answer: Its AC50 is 5.01 µM [falling, full curve, poor fit].

Question: And the max response [5]?
Answer: Its max response is 31.5% and 0.553%.

Question: What about the max response [6] of the same molecule?
Answer: The max response was -0.337%.

Question: What does the source list for `O=C1OC(c2ccc(O)cc2)(c2ccc(O)cc2)c2ccccc21`?
Answer: max response [1, 10]: 36.6%; AC50 [1, 11]: 14.1 µM [rising, single point]; AC50 [1, 12]: 39.8 µM [rising, single point]; max response [1, 13]: 57.5%; AC50 [4]: 56.2 µM [falling, partial curve, poor fit]; max response [6]: 7.42%

Question: Which results are given for `CC1(C)CCC(C)(C)c2cc(C(=O)Nc3ccc(C(=O)O)cc3)ccc21`?
Answer: max response [1, 10]: 46%; AC50 [1, 11]: 20 µM [rising, partial curve, poor fit]; AC50 [1, 12]: 20 µM [rising, partial curve, poor fit]; max response [1, 13]: 51%; max response [3]: 100%; AC50 [7]: 25.1 µM [rising, full curve, poor fit]; max response [5]: -22.1%

Question: Which AC50 [8] does the source give for `COc1ccccc1CNc1ccnc(-c2ccccc2CN(C)C)n1` here?
Answer: The AC50 was 6.31 µM [rising, partial curve].

Question: And the max response [1, 10]?
Answer: Its max response is 47.2%.

Question: What about the AC50 [1, 11] of the same molecule?
Answer: The AC50 was 2.82 µM [rising, partial curve].

Question: What about the AC50 [1, 12] of the same molecule?
Answer: Its AC50 is 10 µM [rising, partial curve, poor fit].

Question: And the max response [1, 13]?
Answer: Its max response is 50.3%.

Question: What does the source list for `O=c1[nH]c2cc(Cl)ccc2c(O)c1-c1ccc(Oc2ccccc2)cc1`?
Answer: max response [1, 10]: 52.4%; AC50 [1, 11]: 31.6 µM [rising, partial curve, poor fit]; AC50 [1, 12]: 31.6 µM [rising, partial curve, poor fit]; max response [1, 13]: 53.2%; AC50 [2, 14]: 18.4 µM [falling, single point]; viability change [9]: -9.66%

Question: With `O=c1cc(-c2ccccc2)oc2c1ccc1ccccc12` as the molecule, how does the AC50 [8] read?
Answer: The AC50 was 3.16 µM [rising, full curve].

Question: And the max response [1, 10]?
Answer: The max response was 13.1%.

Question: What about the AC50 [1, 11] of the same molecule?
Answer: Its AC50 is 0.224 µM [rising, full curve, poor fit].

Question: And the AC50 [1, 12]?
Answer: Its AC50 is 0.178 µM [rising, full curve, poor fit].

Question: What about the max response [1, 13] of the same molecule?
Answer: Its max response is 26.7%.

Question: With `CC(=O)Oc1ccc(C(c2ccc(OC(C)=O)cc2)c2ccccn2)cc1` as the molecule, how does the AC50 [8] read?
Answer: Its AC50 is 5.01 µM [rising, partial curve].

Question: And the max response [1, 10]?
Answer: The max response was 33.4%.

Question: What about the AC50 [1, 11] of the same molecule?
Answer: The AC50 was 0.794 µM [rising, full curve].

Question: What about the AC50 [1, 12] of the same molecule?
Answer: The AC50 was 28.2 µM [rising, partial curve].

Question: What about the max response [1, 13] of the same molecule?
Answer: The max response was 50.3%.

Question: And the max response [3]?
Answer: The max response was 84%.

Question: And the AC50 [4]?
Answer: The AC50 was 17.8 µM [rising, partial curve, poor fit].

Question: And the max response [5]?
Answer: Its max response is 39.6%.

Question: Which AC50 [8] does the source give for `c1ccc(CN(CC2=NCCN2)c2ccccc2)cc1` here?
Answer: The AC50 was 0.0316 µM [rising, full curve, poor fit].

Question: What about the max response [1, 10] of the same molecule?
Answer: Its max response is 55.8%.

Question: What about the AC50 [1, 11] of the same molecule?
Answer: The AC50 was 35.5 µM [rising, partial curve, poor fit].

Question: What about the AC50 [1, 12] of the same molecule?
Answer: Its AC50 is 35.5 µM [rising, partial curve, poor fit].

Question: What about the max response [1, 13] of the same molecule?
Answer: The max response was 72.9%.

Question: With `COc1ccccc1CNc1nc(-c2ccc(C(=O)N(C)C)cc2)nc2ccccc12` as the molecule, how does the AC50 [8] read?
Answer: Its AC50 is 10 µM [rising, single point].

Question: What about the max response [1, 10] of the same molecule?
Answer: The max response was 30.2%.

Question: And the AC50 [1, 11]?
Answer: The AC50 was 0.00562 µM [rising, full curve, poor fit].

Question: What about the AC50 [1, 12] of the same molecule?
Answer: The AC50 was 0.00891 µM [rising, full curve, poor fit].

Question: What about the max response [1, 13] of the same molecule?
Answer: The max response was 39.7%.

Question: With `N=C(N)SCCN` as the molecule, how does the max response [1, 10] read?
Answer: Its max response is 66%.

Question: And the AC50 [1, 11]?
Answer: Its AC50 is 39.8 µM [rising, partial curve, poor fit].

Question: What about the AC50 [1, 12] of the same molecule?
Answer: Its AC50 is 39.8 µM [rising, partial curve, poor fit].

Question: What about the max response [1, 13] of the same molecule?
Answer: The max response was 67.1%.

Question: And the AC50 [2, 14]?
Answer: The AC50 was 0.0164 µM [rising, full curve, poor fit].

Question: For `CC(C)C(=O)c1c(C(C)C)nn2ccccc12`, which max response [1, 10] is on record?
Answer: Its max response is 80.4% and -22.1%.

Question: And the AC50 [1, 11]?
Answer: The AC50 was 11.2 µM [rising, partial curve, poor fit].

Question: And the AC50 [1, 12]?
Answer: Its AC50 is 14.1 µM [rising, partial curve] and 7.94 µM [falling, single point].

Question: And the max response [1, 13]?
Answer: Its max response is 111% and -22.6%.

Question: What about the viability change [9] of the same molecule?
Answer: The viability change was -1.27%.

Question: What does the source list for `CC(C)NCC(O)COc1cccc2ccccc12` (stereo not given)?
Answer: max response [1, 10]: -5.2%; AC50 [1, 11]: 0.631 µM [falling, full curve, poor fit]; AC50 [1, 12]: 0.631 µM [falling, full curve, poor fit]; max response [1, 13]: -4.22%; AC50 [4]: 0.0141 µM [falling, full curve, poor fit]
